Experimental data: PubChem BioAssay AID686979 (National Center for Advancing Translational Sciences (NCATS), 2013)
The whole screen tested about 420,000 compounds, of which about 50,000 (12%) were called active. The inconclusive results got no clear call from the source; some entries with a clear call stand among them for comparison. Calls follow the shape of the dose curve; as a rule, active = well fitted inhibition curve with a large enough effect; inconclusive = small, poorly fitted or top-dose-only effect; inactive = flat fitted curve, though single readings scatter. No potency is given beside an inconclusive call; the fits are too rough.

Experiment: qHTS for Inhibitors of human tyrosyl-DNA phosphodiesterase 1 (TDP1): qHTS in cells in presence of CPT; also: nearly all actives have a fitted effect of over 55% in size
Settings: chicken DT40 Tdp1-/-;hTDP1 cells + 20 nM CPT, ATP luminescence, 48 h; activity change, negative = growth inhibition: at 46.2 µM (top of the series) unless noted
Outline: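 Chicken DT40 Tdp1-/- cells stably complemented with human TDP1 were seeded at 400 cells/well in medium containing 20 nM camptothecin, exposed to pin-transferred compounds, and grown at 37 °C for at least 48 hr. Viability was read as ATP luminescence.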
% is scaled to controls: 0 for no effect and ±100 for the full control effect; potency is read from the fitted curve at half-maximal effect; tags tell the direction and shape of the fitted curve.

| SMILES | Potency | activity change, negative = growth inhibition |
| --- | --- | --- |
| O=C(NC(=S)Nc1ccc(CN2CCOCC2)cc1)c1ccc([N+](=O)[O-])cc1 | inconclusive [inhibitor, single point] | – |
| Clc1cccc(Cl)c1/C=N\Nc1nccs1 | inconclusive [inhibitor, single point] | – |
| COCCCNC(=O)COc1ccc(-c2nccc(-c3ccccn3)n2)cc1 | inconclusive [inhibitor, single point] | – |
| Cc1cc(C)cc(-n2ccnc2SCC(=O)Nc2cccc3ccccc23)c1 | active: 20.6 µM | – |
| COc1ccc(Cl)cc1NC(=O)CN(C)C(=O)Cc1ccc2c(c1)CCC2 | inconclusive [inhibitor, single point] | – |
| COc1cc(-c2nnc3sc(Cc4ccc(Cl)cc4)nn23)cc(OC)c1OC | active: 11.6 µM | – |
| COCCCNC(=O)CC1C[C@H](C(=O)N2CCOCC2)[C@@]2(CCC3CCCC3)c3[nH]c4ccc(OC)cc4c3CCN2C1=O (some centres undefined) | inconclusive [inhibitor, single point] | – |
| O=C(c1csnn1)N1CCC[C@@]2(CCN(c3cccc(-c4ccccc4)c3)C2)C1 | inconclusive [inhibitor, single point] | – |
| COP(=O)(OC)c1nc(-c2ccccc2)oc1NCc1ccccc1 | – | inactive: -12.2% |
| COc1ccc(OC)c(C2SCCN2S(=O)(=O)c2cccc(C(F)(F)F)c2)c1 (centres undefined) | active: 16.4 µM | – |
| CN(c1ccc(C(=O)NC2CCCC2)cc1)S(=O)(=O)c1ccc(Cl)cc1 | inconclusive [inhibitor, partial curve] | – |
| Cc1cc2nc(-c3ccc(OCc4ccccc4C)cc3)cc(C(F)(F)F)n2n1 | inconclusive [inhibitor, single point] | – |
| CCSc1nc2c(c(=O)[nH]c(=O)n2C)n1Cc1ccc(Cl)cc1 | inconclusive [inhibitor, single point] | – |
| O=C(NCc1ccco1)c1ccc(-c2ccc(Cl)cc2)o1 | – | inactive: -2.16% |
| COc1ccc(-c2csc(NC(CO)c3nc4ccccc4n3CCOCCO)n2)cc1 (centres undefined) | inconclusive [inhibitor, single point] | – |
| COC(CNC(=O)c1cnn2c(C)c(Cc3ccccc3)c(C)nc12)OC | inconclusive [inhibitor, single point] | – |
| Cc1ccccc1-c1nc(CN2CCCC(C(=O)NCc3ccc(Cl)cc3)C2)c(C)o1 (centres undefined) | – | inactive: -23.3% |
| COc1cccc(Nc2nc3cc(C)ccc3cc2C)c1 | inconclusive [inhibitor, single point] | – |
| COc1ccc(N2C(=O)NC(NS(=O)(=O)c3ccc(Cl)cc3)(C(F)(F)F)C2=O)cc1 (centres undefined) | – | inactive: 4.4% |
| Cc1cccc(N/C(N)=N/c2nc(C)cc(C)n2)c1 | inconclusive [inhibitor, partial curve] | – |
| Cc1ccccc1CNC(=O)C(=O)NCCC1CCCCN1S(=O)(=O)c1ccccc1 (centres undefined) | active: 16.4 µM | – |
| CNC(=O)C1CCC(Cn2c(=O)c3sccc3n(Cc3cc(C)ccc3C)c2=O)CC1 (centres undefined) | inconclusive [inhibitor, full curve] | – |

| SMILES | Potency | activity change, negative = growth inhibition |
| --- | --- | --- |
| COCCNC(=O)c1ccccc1-c1nc(-c2ccccc2OC)no1 | – | inactive: -26.1% |
| CCCCc1ccc(NC(=S)NCc2ccccc2OC)cc1 | – | inactive: 8.57% |
| COc1ccc(NC(=O)CSc2nc3ccccc3c(=O)n2CCCN2CCOCC2)c(OC)c1 | inconclusive [inhibitor, single point] | – |
| COC(=O)C1=C(C)NC(=S)NC1c1ccc(-c2ccccc2C(=O)OC)o1 (centres undefined) | inconclusive [inhibitor, partial curve] | – |
| CN(CC(=O)Nc1ccccc1Cl)C(=O)c1ccc(N2C(=O)CCC2=O)cc1 | – | inactive: 2.8% |
| CCN(C(=O)Cn1c(C(=O)OC)cc2sc(Cl)cc21)c1cccc(C)c1 | inconclusive [inhibitor, full curve, poor fit] | – |
| CCCNC(=S)NCc1ccc(Cl)cc1 | inconclusive [inhibitor, single point] | – |
| CCc1ccc(S(=O)(=O)c2cn(CC(=O)Nc3ccc(F)c(Cl)c3)c3ccccc3c2=O)cc1 | inconclusive [inhibitor, single point] | – |
| NC1=NC(=O)/C(=C/c2c(OS(=O)(=O)c3ccc(Cl)cc3)ccc3ccccc23)S1 | – | inactive: -2.65% |
| CCN(CC)S(=O)(=O)c1ccc(Cl)c(NC(=O)COC(=O)c2c(C)noc2C)c1 | inconclusive [inhibitor, partial curve] | – |
| COC(=O)c1[nH]c2ccccc2c1NC(=O)CN1CCCCCC1 | inconclusive [inhibitor, single point] | – |
| CC(NC(=O)c1cc(S(=O)(=O)N(C)C)ccc1Cl)C1CC2CCC1C2 (centres undefined) | active: 16.4 µM | – |
| CC1Sc2ccc(S(=O)(=O)CCC(=O)NC3CCCCCC3)cc2NC1=O (centres undefined) | inconclusive [inhibitor, partial curve] | – |
| O=S(=O)(N/N=C/c1ccc(OC2CSC2)cc1)c1ccccc1 | – | inactive: 0.277% |
| COc1ccc(-c2c(-c3cccc(C)c3)oc3ccc(-c4ccc5c(c4)OCO5)cc23)cn1 | inconclusive [inhibitor, single point] | – |
| COc1ccc(C2C(=O)N(C3CCCCC3)CC(=O)N2CCc2ccc(C)cc2)cc1OC (centres undefined) | inconclusive [inhibitor, single point] | – |
| Cc1cc(/C=C2\C=Cc3ccccc32)cc(C)c1N | inconclusive [inhibitor, single point] | – |
| O=C(c1ccccc1)c1sc(N2CCOCC2)nc1-c1ccccc1 | inconclusive [inhibitor, single point] | – |
| CCn1c(/C=C2/C(=O)N(C)c3ccccc32)nc2ccccc2c1=O | inconclusive [inhibitor, single point] | – |
| CSc1nc(NCCOC(C)=O)c(C#N)c(-c2ccc(C(C)(C)C)cc2)n1 | inconclusive [inhibitor, single point] | – |
| c1ccc(CNc2ncnc3sc4c(c23)CCCC4)nc1 | active: 16.4 µM | – |
| Clc1ccc(OCCCCN2CCc3ccccc3C2)cc1 | inconclusive [inhibitor, single point] | – |
